Laboratory results: PubChem BioAssay AID894 (National Center for Advancing Translational Sciences (NCATS), 2007)
Screen size: about 150,000 compounds; about 6,500 (4.3%) were called active. Inconclusive means that the source gave no clear call. Such entries were picked first, then a sample of the others. The call rests on the fitted dose curve; in most records, active means well fitted inhibition curve with a large enough effect (not every such curve was filed as active); inconclusive means small, poorly fitted or top-dose-only effect, or another doubt; inactive means no such curve, though single readings can be large or run the other way. No potency is given beside an inconclusive call; the fits are too rough.

biological target: 15-hydroxyprostaglandin dehydrogenase [NAD(+)] (Homo sapiens) (UniProt P15428); test: qHTS Assay for Inhibitors of HPGD (15-Hydroxyprostaglandin Dehydrogenase); conditions: purified HPGD, NADH fluorescence kinetic, PGE2 substrate; activity change, negative = inhibition: stronger effect = lower value
Chain of UniProt P15428 (P15428 whole entry, looked up): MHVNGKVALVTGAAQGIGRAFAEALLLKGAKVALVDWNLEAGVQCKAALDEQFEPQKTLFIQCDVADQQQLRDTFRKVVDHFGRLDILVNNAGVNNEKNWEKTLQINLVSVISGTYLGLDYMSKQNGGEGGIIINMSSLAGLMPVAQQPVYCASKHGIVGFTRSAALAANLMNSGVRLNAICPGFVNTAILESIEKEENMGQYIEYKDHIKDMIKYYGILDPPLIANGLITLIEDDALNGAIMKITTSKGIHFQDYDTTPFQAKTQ
Summary of the method: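 20 nM HPGD preincubated 15 min at room temperature with compound in 50 mM Tris-HCl pH 8, 0.01% Tween 20. Started with 1 mM NAD+ and 30 uM prostaglandin E2; NADH fluorescence (360/450 nm) read 5 times over 30-s intervals, last minus first.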
On the % scale 0 is the no-effect control and ±100 the full control effect; potency means the concentration at half of the fitted maximal effect; tags describe the fitted curve by direction and shape.

Q: Which Potency does the source give for `CCCN(CC1CC1)c1nc(N)c2c(N)nc(OC)cc2c1C#N` here?
A: Its Potency is inconclusive [inhibitor, partial curve].

Q: `Cc1ccc(-c2nc3ncccc3o2)cc1NC(=O)c1cc2ccccc2o1` was tested. Which Potency did it give?
A: The Potency was inconclusive [inhibitor, partial curve].

Q: How did the Potency turn out when `O=C1/C(=C/c2ccc(C(=O)O)cc2)CCC/C1=C\c1ccc(C(=O)O)cc1` was run?
A: The Potency was active: 20 µM.

Q: With `O=C(NCCN1CCN(Cc2ccccc2Cl)CC1)Nc1ccccc1` as the compound, how does the activity change, negative = inhibition read?
A: The activity change, negative = inhibition was inactive: -1.67%.

Q: `Cc1c(C(=O)O)oc2c1ccc1ccccc12` was tested. Which Potency did it give?
A: Its Potency is inconclusive [inhibitor, partial curve, poor fit].

Q: Which activity change, negative = inhibition does the source give for `COC(=O)C1=C(C)Nc2ccc(C)cc2S1` here?
A: The activity change, negative = inhibition was inactive: -15%.

Q: Which Potency does the source give for `Cc1cc[n+](CC(=O)c2cc3ccccc3oc2=O)cc1` here?
A: Its Potency is inconclusive [inhibitor, partial curve].

Q: How did the Potency turn out when `COC(=O)Nc1nc2ccc(S(=O)c3ccccc3)cc2[nH]1` (stereo not given) was run?
A: Its Potency is inconclusive [inhibitor, single point].

Q: How did the Potency turn out when `COc1cnc(SCc2ccc(Cl)cc2Cl)nc1Cl` was run?
A: The Potency was active: 17.8 µM.

Q: How did the Potency turn out when `O=C(COc1ccc(Cl)cc1Cl)N1CCCCCC1` was run?
A: Its Potency is inconclusive [inhibitor, partial curve].

Q: For `O=C1c2ccccc2C(=O)c2c(O)ccc(O)c21`, which activity change, negative = inhibition is on record?
A: Its activity change, negative = inhibition is inactive: -8.73%.

Q: Which activity change, negative = inhibition does the source give for `CC1=C(C(=O)Nc2ccccc2)C(c2cccc([N+](=O)[O-])c2)Nc2nc3ccccc3n21` (stereo not given) here?
A: Its activity change, negative = inhibition is inactive: -2.27%.

Q: With `COC(=O)[C@H]1C[C@@H]1[C@H](NS(=O)(=O)c1ccc(-c2ccccc2)cc1)c1ccccc1` as the compound, how does the activity change, negative = inhibition read?
A: The activity change, negative = inhibition was inactive: -11.6%.

Q: Which activity change, negative = inhibition does the source give for `COc1ccc(NC(=O)c2ccco2)cc1NC(=O)c1ccco1` here?
A: The activity change, negative = inhibition was inactive: -3.53%.

Q: `C/C(CCc1oc2ccccc2c1-c1ccc(C)o1)=N/O` was tested. Which Potency did it give?
A: Its Potency is inconclusive [inhibitor, partial curve].

Q: With `O=c1c2cnn(-c3ccccc3)c2nc(-c2cccs2)n1-c1cccc(Cl)c1` as the compound, how does the Potency read?
A: Its Potency is inconclusive [inhibitor, single point].

Q: `COc1ccc(-c2nc3ccccc3c(=O)n2CCCn2ccnc2)cc1` was tested. Which activity change, negative = inhibition did it give?
A: The activity change, negative = inhibition was inactive: -16%.

Q: For `COc1cc2c(Cc3c4c5c(cc(OC)c(OC)c5c5c(OC)c(OC)ccc35)CCN4C)c3c4c(cc(OC)c(OC)c4c2cc1OC)CCN3C`, which Potency is on record?
A: Its Potency is inconclusive [inhibitor, full curve, poor fit].

Q: `COc1ccc(-c2nn(-c3ccccc3)cc2/C=C/C(=O)OCC(=O)Nc2cccc(C#N)c2)cc1` was tested. Which Potency did it give?
A: Its Potency is inconclusive [inhibitor, partial curve].

Q: For `N#C[C@H]1[C@H](c2ccccc2)[C@](C#N)(C(=O)c2ccccc2)[C@@H]2C=Cc3ccccc3N21`, which Potency is on record?
A: The Potency was inconclusive [inhibitor, partial curve].

Q: `CCN(CC)c1ccc2c(c1)C(=O)N(C)C2=O` was tested. Which Potency did it give?
A: The Potency was active: 17.8 µM.

Q: Which activity change, negative = inhibition does the source give for `Cc1cc(O)ccc1C1(c2ccc(O)cc2C)OC(=O)c2ccccc21` here?
A: The activity change, negative = inhibition was inactive: -12%.

Q: How did the Potency turn out when `CCn1c(-c2ccccc2)c(C(=O)O)c2ccccc21` was run?
A: Its Potency is inconclusive [inhibitor, partial curve].

Q: With `Cc1c(C(=O)N2CCCCC2)nnn1-c1nonc1N` as the compound, how does the Potency read?
A: Its Potency is active: 15.8 µM.

Q: How did the Potency turn out when `Cc1ccccc1N=CC=C1OC(C)(C)C(C)(C)O1` was run?
A: The Potency was inconclusive [inhibitor, partial curve].

Q: How did the Potency turn out when `COc1ccc(S(=O)(=O)NCc2ccc(C(=O)N(C)Cc3ccco3)cc2)cc1` was run?
A: The Potency was inconclusive [inhibitor, partial curve, poor fit].

Q: `Cc1cc(C)n(CC(O)COc2cccc(OCC(O)Cn3nc(C)cc3C)c2)n1` (stereo not given) was tested. Which Potency did it give?
A: Its Potency is inconclusive [inhibitor, single point].

Q: How did the Potency turn out when `CCOC(=O)CSC1=Nc2ccccc2C2=NC(CC(=O)NCc3ccccc3)C(=O)N12` (stereo not given) was run?
A: Its Potency is inconclusive [inhibitor, partial curve].

Q: `CCOc1cc(/C=C2/C(=O)N(c3ccccc3)N=C2C)ccc1OC(=O)c1ccco1` was tested. Which Potency did it give?
A: Its Potency is active: 8.91 µM.

Q: With `Nc1cccc(-c2nc3ccc(N)cc3s2)c1` as the compound, how does the Potency read?
A: Its Potency is inconclusive [inhibitor, partial curve].

Q: For `O=C(O)Cn1nnnc1-c1ccc(F)cc1`, which Potency is on record?
A: The Potency was inconclusive [inhibitor, partial curve].

Q: `CC(C)c1ccc2c([Si](C)(C)C)c3c(nc2c1)-c1cccc(=O)n1C3` was tested. Which Potency did it give?
A: The Potency was inconclusive [inhibitor, partial curve, poor fit].

Q: With `COC(=O)[C@@]1(Cc2ccc(OC)cc2)[C@H]2c3cc(C(=O)N4CCCC4)n(Cc4cc(F)cc5c4OCOC5)c3C[C@H]2CN1C(=O)c1ccccc1` as the compound, how does the activity change, negative = inhibition read?
A: The activity change, negative = inhibition was inactive: -5.67%.

Q: For `FC(F)(F)c1cc(-c2cccs2)nc(-n2cc(Br)cn2)n1`, which Potency is on record?
A: The Potency was inconclusive [inhibitor, partial curve].

Q: With `Clc1ccc(Cc2nn3c(Cn4nnc5ccccc54)nnc3s2)cc1` as the compound, how does the Potency read?
A: The Potency was active: 22.4 µM.

Q: For `Cc1cccc2cc3c(N)c(C(=O)N4CCCc5ccccc54)sc3nc12`, which Potency is on record?
A: The Potency was inconclusive [inhibitor, partial curve].

Q: For `Cc1cc(N)n2nc(-c3ccc(C(C)(C)C)cc3)cc2n1`, which Potency is on record?
A: The Potency was inconclusive [inhibitor, partial curve].

Q: Which Potency does the source give for `O=C(OC(C(=O)NCc1ccc2c(c1)OCO2)c1ccc(Cl)cc1)c1ccco1` (stereo not given) here?
A: Its Potency is active: 28.2 µM.

Q: How did the activity change, negative = inhibition turn out when `Cc1ccc(N=Nc2c(O)c(S(=O)(=O)O)cc3cc(S(=O)(=O)O)ccc23)c(C)c1` was run?
A: Its activity change, negative = inhibition is inactive: -7.68%.

Q: `O=c1cc(-c2cccc(O)c2)oc2cc(O)ccc12` was tested. Which Potency did it give?
A: Its Potency is inconclusive [inhibitor, partial curve].

Q: With `Cc1ccc(-n2ncc3c(=O)[nH]c(SCC(=O)N4CCCC4)nc32)cc1C` as the compound, how does the Potency read?
A: Its Potency is active: 15.8 µM.

Q: `COCCn1c(=NC(=O)c2nc3ccccc3s2)sc2cc(S(C)(=O)=O)ccc21` was tested. Which Potency did it give?
A: The Potency was inconclusive [inhibitor, partial curve].

Q: `Cc1ccc(-c2nc3ccccn3c2NC(=O)c2ccco2)cc1` was tested. Which activity change, negative = inhibition did it give?
A: The activity change, negative = inhibition was inactive: 1.66%.

Q: With `O=C(NCc1ccco1)c1nnc(Cc2ccc(Cl)cc2)o1` as the compound, how does the activity change, negative = inhibition read?
A: The activity change, negative = inhibition was inactive: -19.6%.

Q: With `CC(=O)c1ccc(Sc2nnnn2-c2ccccc2)c([N+](=O)[O-])c1` as the compound, how does the activity change, negative = inhibition read?
A: The activity change, negative = inhibition was inactive: -16%.

Q: Which Potency does the source give for `COC(=O)c1ccc(-c2nn(C)c(=O)c3ccccc23)cc1` here?
A: Its Potency is inconclusive [inhibitor, partial curve].

Q: With `CC(C)(C)c1ccc(S(=O)(=O)NCc2ccc(C(=O)N3CCOCC3)cc2)cc1` as the compound, how does the activity change, negative = inhibition read?
A: Its activity change, negative = inhibition is inactive: -11.5%.

Q: For `O=C(NC12CC3CC(CC(C3)C1)C2)c1ccc(-c2ccc(Cl)cc2)o1`, which Potency is on record?
A: Its Potency is inconclusive [inhibitor, partial curve].

Q: Which Potency does the source give for `COc1ccc2cc(/C=N/NC(=O)c3c(Cl)cnn3C)c(Cl)nc2c1` here?
A: Its Potency is inconclusive [inhibitor, partial curve].

Q: With `CC1=CC(c2ccccc2)n2nc(NS(=O)(=O)c3ccc(C)cc3)nc2N1` (stereo not given) as the compound, how does the Potency read?
A: Its Potency is inconclusive [inhibitor, partial curve].

Q: For `CN(C)c1ccc(C(=O)c2ccccc2)cc1`, which Potency is on record?
A: The Potency was inconclusive [inhibitor, partial curve, poor fit].

Q: `CCCOc1ccc(NC(=O)CC2C(=O)N(Cc3ccccc3)C(=S)N2Cc2cccs2)cc1` (stereo not given) was tested. Which activity change, negative = inhibition did it give?
A: The activity change, negative = inhibition was inactive: -17.1%.

Q: Which activity change, negative = inhibition does the source give for `O=CN1CCN(C2CC(=O)N(c3ccc(Br)cc3)C2=O)CC1` (stereo not given) here?
A: The activity change, negative = inhibition was inactive: -9.08%.

Q: How did the Potency turn out when `CCOC(=O)c1cn(CC)c2ccc(S(=O)(=O)N3CCC(C)CC3)cc2c1=O` was run?
A: Its Potency is active: 15.8 µM.

Q: For `COc1cccc(NCc2cc(=O)oc3cc(-c4ccccc4)c(O)cc23)c1`, which activity change, negative = inhibition is on record?
A: Its activity change, negative = inhibition is inactive: -0.383%.

Q: With `O=C(/C=C/c1ccco1)Oc1cc(Br)cc(/C=N/NC(=O)c2ccccc2O)c1` as the compound, how does the Potency read?
A: Its Potency is inconclusive [inhibitor, single point].

Q: For `Nc1nc(-c2ccc3c(c2)CCCC3)cs1`, which Potency is on record?
A: Its Potency is inconclusive [inhibitor, partial curve].

Q: `O=C(CCc1ccccc1)Nc1nnc(-c2ccccn2)o1` was tested. Which Potency did it give?
A: The Potency was inconclusive [inhibitor, partial curve].

Q: Which Potency does the source give for `O=C(Cc1ccccc1)Nc1ccccc1C(=O)Nc1ccccc1` here?
A: The Potency was inconclusive [inhibitor, partial curve].

Q: How did the activity change, negative = inhibition turn out when `CCC(C)NCCOCCOc1ccc(Br)cc1C` (stereo not given) was run?
A: The activity change, negative = inhibition was inactive: -6.54%.

Q: How did the activity change, negative = inhibition turn out when `Cc1ccc2nc(NC(=O)C3CCN(S(=O)(=O)c4cc([N+](=O)[O-])ccc4Cl)CC3)sc2c1` was run?
A: The activity change, negative = inhibition was inactive: -16.1%.

Q: For `COC(=O)N/N=C/c1ccc(-c2ccc(Cl)c(Cl)c2)o1`, which Potency is on record?
A: The Potency was inconclusive [inhibitor, partial curve].

Q: Which Potency does the source give for `CCOC(=O)c1[nH]c2ccc(OC)cc2c1NC(=O)C(C)N1CCC2(CC1)OCCO2` (stereo not given) here?
A: The Potency was inconclusive [inhibitor, partial curve].

Q: Which activity change, negative = inhibition does the source give for `CC1(C)CC(=O)N(Cc2ccccc2)C(=O)C1` here?
A: Its activity change, negative = inhibition is inactive: 0.46%.

Q: `CN(C)/C=N/c1ncc(C(=O)c2ccc3ccccc3c2)s1` was tested. Which Potency did it give?
A: Its Potency is inconclusive [inhibitor, single point].

Q: Which activity change, negative = inhibition does the source give for `Cc1ccc(-c2nnc(SCC(=O)NC3CCS(=O)(=O)C3)nc2-c2ccc(C)cc2)cc1` (stereo not given) here?
A: The activity change, negative = inhibition was inactive: -10.1%.

Q: For `O=C1CC(=O)N(Cc2ccco2)C(=S)N1`, which Potency is on record?
A: Its Potency is inconclusive [inhibitor, single point].

Q: Which activity change, negative = inhibition does the source give for `COC(=O)C(CCSC)NC(=O)c1cc2c(n(-c3ccccc3)c1=O)CC(C)(C)CC2=O` (stereo not given) here?
A: Its activity change, negative = inhibition is inactive: -7.46%.

Q: For `CCn1c(C)cc(/C=C2\NC(=O)N(CC(=O)Nc3cccc(C)c3)C2=O)c1C`, which Potency is on record?
A: Its Potency is inconclusive [inhibitor, partial curve].

Q: With `COc1ccc2[nH]cc(C(=O)N3CCCCC3)c(=O)c2c1` as the compound, how does the Potency read?
A: The Potency was inconclusive [inhibitor, partial curve].
